Some of the results follow. At the low end of the ranking, values are background and their order means little.
molecular target: GST-SBP-SLBP (stem-loop binding protein) (UniProt Q14493); experiment: targeted RNA Bind-n-Seq; settings: RBNS binding buffer: 25 mM Tris pH 7.5, 150 mM KCl, 3 mM MgCl2, 0.1% Tween, 0.5 mg/mL BSA, 1 mM DTT; 27 nM protein, 750 pM RNA pool; temperature not stated; high values mean tight binding;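 note: DESeq read counts versus GST-SBP nonspecific binding control pulldown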

Row | Sequence | binding signal (log2 fold change)
1 | GGUCACGUCUCAAUCAACUCAAGUCCAGGAGUUUCCUCCUGUUAUCUCAACAGCUCGCAGUCAAG | -0.125
2 | GGUCACGUCUCAAUCAACUCUCAAGAGGGGGGGAAAACCCCUUUGCCCUCACAUUCAACAGCUCGCAGUCAAG | -0.0507
3 | GGUCACGUCUCAAUCAACUCUUUCCCCAGGGAAAACCCUGGCUAACUCAACAGCUCGCAGUCAAG | 0.153
4 | GGUCACGUCUCAAUCAACUCUUUCUCCAGGGAAAGCCCUGGCUUAUUCAACAGCUCGCAGUCAAG | -0.0812
5 | GGUCACGUCUCAAUCAACUCAUUCCCCAGGGAAAUCCCUGGCAAAUUCAACAGCUCGCAGUCAAG | -0.046
6 | GGUCACGUCUCAAUCAACUCCUUCGAGGGGGGGAAAACCCCUUUACCCUCAUCGUCAACAGCUCGCAGUCAAG | -0.238
7 | GGUCACGUCUCAAUCAACUCCAUAGAGGGGGGGAAAACCCCUUUACCCUCAAUCUCAACAGCUCGCAGUCAAG | -0.0738
8 | GGUCACGUCUCAAUCAACUCUUUUCCAGGAGUUUUCUCCUGCAUUUUCAACAGCUCGCAGUCAAG | -0.117
9 | GGUCACGUCUCAAUCAACUCCUACGAGGGGGGGAAAACCCCUUUACCCUCAUUCUCAACAGCUCGCAGUCAAG | -0.452
10 | GGUCACGUCUCAAUCAACUCAGUUUCCAGGGAAAGCCCUGGCAUUUUCAACAGCUCGCAGUCAAG | 0.0887
11 | GGUCACGUCUCAAUCAACUCUAUUCCCAGGGAAAACCCUGGCUAUUUCAACAGCUCGCAGUCAAG | -0.0983
12 | GGUCACGUCUCAAUCAACUCUAUCCCAGGAGUUUACUCCUGUUUUUUCAACAGCUCGCAGUCAAG | -0.00753
13 | GGUCACGUCUCAAUCAACUCUAUGUCAGGAGUUUCCUCCUGUUUUCUCAACAGCUCGCAGUCAAG | -0.15
14 | GGUCACGUCUCAAUCAACUCAUCUCCAGGAGUUUACUCCUGUUAUUUCAACAGCUCGCAGUCAAG | 0.175
15 | GGUCACGUCUCAAUCAACUCUACGGAGGGGGGGAAAACCCCUUUACCCUCACAUUCAACAGCUCGCAGUCAAG | 0.0891
16 | GGUCACGUCUCAAUCAACUCUUCCUCAGGAGUUUCCUCCUGUUUUUUCAACAGCUCGCAGUCAAG | 0.00246
17 | GGUCACGUCUCAAUCAACUCAUCUCCCAGGGAAAUCCCUGGCUUUUUCAACAGCUCGCAGUCAAG | -0.112
18 | GGUCACGUCUCAAUCAACUCUUCCUCAGGAGUUUCCUCCUGCAUUCUCAACAGCUCGCAGUCAAG | 0.223
19 | GGUCACGUCUCAAUCAACUCUUCUCCCAGGGAAACCCCUGGUUUACUCAACAGCUCGCAGUCAAG | -0.0411
20 | GGUCACGUCUCAAUCAACUCAAUUUCAGGAGUUUUCUCCUGCAUACUCAACAGCUCGCAGUCAAG | 0.116
21 | GGUCACGUCUCAAUCAACUCAGUCUCAGGAGUUUACUCCUGCAUUUUCAACAGCUCGCAGUCAAG | -0.123
22 | GGUCACGUCUCAAUCAACUCUAUCUCCAGGGAAAGCCCUGGCUUUCUCAACAGCUCGCAGUCAAG | 0.0855
23 | GGUCACGUCUCAAUCAACUCUUCGCCCAGGGAAAUCCCUGGUUAAUUCAACAGCUCGCAGUCAAG | 0.188
24 | GGUCACGUCUCAAUCAACUCUUUCUCCAGGGAAACCCCUGGUUUACUCAACAGCUCGCAGUCAAG | -0.101
25 | GGUCACGUCUCAAUCAACUCUUUCUCAGGAGUUUCCUCCUGCUUAUUCAACAGCUCGCAGUCAAG | 0.0275

Row | Sequence | binding signal (log2 fold change)
26 | GGUCACGUCUCAAUCAACUCUUCGUCCAGGGAAACCCCUGGUAAAUUCAACAGCUCGCAGUCAAG | -0.139
27 | GGUCACGUCUCAAUCAACUCAGUUCCCAGGGAAACCCCUGGCUUUUUCAACAGCUCGCAGUCAAG | -0.124
28 | GGUCACGUCUCAAUCAACUCAACUUCAGGAGUUUUCUCCUGCUAAUUCAACAGCUCGCAGUCAAG | -0.0865
29 | GGUCACGUCUCAAUCAACUCAUCCUCAGGAGUUUUCUCCUGCAAAGUCAACAGCUCGCAGUCAAG | 0.202
30 | GGUCACGUCUCAAUCAACUCUAUUUCCAGGGAAAGCCCUGGCAUUCUCAACAGCUCGCAGUCAAG | 0.0552
31 | GGUCACGUCUCAAUCAACUCAAUGUCAGGAGUUUUCUCCUGCUAAUUCAACAGCUCGCAGUCAAG | -0.028
32 | GGUCACGUCUCAAUCAACUCUAUUCCCAGGGAAAACCCUGGCAUUCUCAACAGCUCGCAGUCAAG | 0.114
33 | GGUCACGUCUCAAUCAACUCAAUUCCAGGAGUUUUCUCCUGUUUAUUCAACAGCUCGCAGUCAAG | 0.0185
34 | GGUCACGUCUCAAUCAACUCAGUCCCAGGAGUUUACUCCUGCAUUCUCAACAGCUCGCAGUCAAG | 0.0695
35 | GGUCACGUCUCAAUCAACUCUACUCCCAGGGAAAGCCCUGGCAUAUUCAACAGCUCGCAGUCAAG | -0.352
36 | GGUCACGUCUCAAUCAACUCUUCUUCAGGAGUUUUCUCCUGCAUUCUCAACAGCUCGCAGUCAAG | 0.0997
37 | GGUCACGUCUCAAUCAACUCAUCCCCAGGAGUUUACUCCUGCAAAUUCAACAGCUCGCAGUCAAG | -0.125
38 | GGUCACGUCUCAAUCAACUCAAUCUCAGGAGUUUACUCCUGCAAUCUCAACAGCUCGCAGUCAAG | -0.0352
39 | GGUCACGUCUCAAUCAACUCGUCUUCAGGAGUUUCCUCCUGCAAAUUCAACAGCUCGCAGUCAAG | 0.0753
40 | GGUCACGUCUCAAUCAACUCUUCGCCCAGGGAAAGCCCUGGUAUAUUCAACAGCUCGCAGUCAAG | -0.00895
41 | GGUCACGUCUCAAUCAACUCAAUCUCAGGAGUUUACUCCUGCAUAUUCAACAGCUCGCAGUCAAG | 0.0726
42 | GGUCACGUCUCAAUCAACUCAAAAGAGGGGGGGAAAACCCCUUUACCCUCAAACUCAACAGCUCGCAGUCAAG | -0.329
43 | GGUCACGUCUCAAUCAACUCCCUAGAGGGGGGGAAAACCCCUUUACCCUCAAACUCAACAGCUCGCAGUCAAG | -0.06
44 | GGUCACGUCUCAAUCAACUCUACUCCCAGGGAAAACCCUGGUAUUUUCAACAGCUCGCAGUCAAG | 0.141
45 | GGUCACGUCUCAAUCAACUCAAAAGAGGGGGGGAAAACCCCUUUACCCUCAAAUUCAACAGCUCGCAGUCAAG | -0.000329
46 | GGUCACGUCUCAAUCAACUCUAUCUCCAGGGAAAUCCCUGGCAUAUUCAACAGCUCGCAGUCAAG | 0.146
47 | GGUCACGUCUCAAUCAACUCUAUUUCCAGGGAAACCCCUGGCUAACUCAACAGCUCGCAGUCAAG | 0.134
48 | GGUCACGUCUCAAUCAACUCAUUCUCCAGGGAAAGCCCUGGCUUAUUCAACAGCUCGCAGUCAAG | -0.0587
49 | GGUCACGUCUCAAUCAACUCAACGCCAGGAGUUUACUCCUGUUUUCUCAACAGCUCGCAGUCAAG | -0.281
50 | GGUCACGUCUCAAUCAACUCUAUUCCAGGAGUUUUCUCCUGCUUAUUCAACAGCUCGCAGUCAAG | -0.117

Row | Sequence | binding signal (log2 fold change)
51 | GGUCACGUCUCAAUCAACUCUUUCCCCAGGGAAACCCCUGGCAUAUUCAACAGCUCGCAGUCAAG | 0.107
52 | GGUCACGUCUCAAUCAACUCCCUAGAGGGGGGGAAAACCCCUUUACCCUCACAAUCAACAGCUCGCAGUCAAG | 0.389
53 | GGUCACGUCUCAAUCAACUCAACUCCCAGGGAAAGCCCUGGCAAUUUCAACAGCUCGCAGUCAAG | 0.122
54 | GGUCACGUCUCAAUCAACUCAUCCCCCAGGGAAACCCCUGGUAAAUUCAACAGCUCGCAGUCAAG | 0.108
55 | GGUCACGUCUCAAUCAACUCUAUAGAGGGGGGGAAAACCCCUUUACCCUCACUAUCAACAGCUCGCAGUCAAG | 0.116
56 | GGUCACGUCUCAAUCAACUCCUUAGAGGGGGGGAAAACCCCUUUACCCUCAACAUCAACAGCUCGCAGUCAAG | 0.186
57 | GGUCACGUCUCAAUCAACUCAUCUUCCAGGGAAAACCCUGGCUAAUUCAACAGCUCGCAGUCAAG | 0.36
58 | GGUCACGUCUCAAUCAACUCAAUUCCCAGGGAAACCCCUGGUAUUCUCAACAGCUCGCAGUCAAG | -0.158
59 | GGUCACGUCUCAAUCAACUCUACUUCAGGAGUUUCCUCCUGUUAACUCAACAGCUCGCAGUCAAG | 0.141
60 | GGUCACGUCUCAAUCAACUCACUAGAGGGGGGGAAAACCCCUUUACCCUCACUAUCAACAGCUCGCAGUCAAG | 0.225
61 | GGUCACGUCUCAAUCAACUCCAACGAGGGGGGGAAAACCCCUUUACCCUCUAAAUCAACAGCUCGCAGUCAAG | -0.488
62 | GGUCACGUCUCAAUCAACUCUCUAGAGGGGGGGAAAACCCCUUUACCCUCAAACUCAACAGCUCGCAGUCAAG | -0.0157
63 | GGUCACGUCUCAAUCAACUCAUCCCCAGGAGUUUACUCCUGCAAUUUCAACAGCUCGCAGUCAAG | -0.0951
64 | GGUCACGUCUCAAUCAACUCCCUCGAGGGGGGGAAAACCCCUUUACCCUCCAUAUCAACAGCUCGCAGUCAAG | -0.124
65 | GGUCACGUCUCAAUCAACUCAUCCCCCAGGGAAACCCCUGGUUUAUUCAACAGCUCGCAGUCAAG | -0.06
66 | GGUCACGUCUCAAUCAACUCAUUCCCAGGAGUUUACUCCUGCUUUCUCAACAGCUCGCAGUCAAG | 0.0318
67 | GGUCACGUCUCAAUCAACUCUUCGUCCAGGGAAAUCCCUGGUAUUUUCAACAGCUCGCAGUCAAG | -0.164
68 | GGUCACGUCUCAAUCAACUCUUAAGAGGGGGGGAAAACCCCUUUGCCCUCAACCUCAACAGCUCGCAGUCAAG | -0.245
69 | GGUCACGUCUCAAUCAACUCAAUCCCCAGGGAAAGCCCUGGUAAAUUCAACAGCUCGCAGUCAAG | 0.148
70 | GGUCACGUCUCAAUCAACUCUAUUUCAGGAGUUUUCUCCUGCUUUCUCAACAGCUCGCAGUCAAG | 0.155
71 | GGUCACGUCUCAAUCAACUCAUUCUCAGGAGUUUCCUCCUGUUUAUUCAACAGCUCGCAGUCAAG | -0.0367
72 | GGUCACGUCUCAAUCAACUCAAUCUCCAGGGAAAACCCUGGUUUAUUCAACAGCUCGCAGUCAAG | -0.252
73 | GGUCACGUCUCAAUCAACUCUUUCUCAGGAGUUUACUCCUGCUAUCUCAACAGCUCGCAGUCAAG | 0.0667
74 | GGUCACGUCUCAAUCAACUCAUCCCCAGGAGUUUGCUCCUGUAUUCUCAACAGCUCGCAGUCAAG | 0.0566

From publication PMC5892938
